{"source": "PubChem BioAssay AID588342", "about": "(National Center for Advancing Translational Sciences (NCATS), 2011)", "note": "The whole screen tested about 360,000 compounds, of which about 25,000 (6.9%) were called active. This list was built around the results that the source calls inconclusive (neither active nor inactive); the mix of calls is not that of the screen. Calls follow the shape of the dose curve; as a rule, active = well fitted inhibition curve with a large enough effect; inconclusive = small, poorly fitted or top-dose-only effect; inactive = flat fitted curve, though single readings scatter. Potencies beside an inconclusive call are fits to weak or partial responses and may not hold up. Potency is read from the fitted curve at half-maximal effect; tags tell the direction and shape of the fitted curve."}
{"target": "Luciferin 4-monooxygenase (Photinus pyralis) (UniProt P08659)", "sequence (P08659 whole entry, looked up)": "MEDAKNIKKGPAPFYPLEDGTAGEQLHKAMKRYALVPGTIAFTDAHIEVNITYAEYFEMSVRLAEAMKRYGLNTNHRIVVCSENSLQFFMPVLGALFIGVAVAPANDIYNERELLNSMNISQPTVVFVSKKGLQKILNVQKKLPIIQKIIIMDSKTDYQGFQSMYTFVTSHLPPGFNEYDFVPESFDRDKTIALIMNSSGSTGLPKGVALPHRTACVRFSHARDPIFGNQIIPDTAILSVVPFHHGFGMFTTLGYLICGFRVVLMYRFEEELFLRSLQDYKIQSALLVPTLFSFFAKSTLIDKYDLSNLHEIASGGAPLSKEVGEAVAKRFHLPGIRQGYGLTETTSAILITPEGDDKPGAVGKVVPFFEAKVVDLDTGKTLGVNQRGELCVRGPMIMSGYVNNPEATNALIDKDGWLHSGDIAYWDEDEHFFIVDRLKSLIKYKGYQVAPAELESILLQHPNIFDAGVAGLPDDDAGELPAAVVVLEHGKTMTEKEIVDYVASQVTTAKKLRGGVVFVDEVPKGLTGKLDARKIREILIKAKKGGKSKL", "test": "qHTS profiling assay for firefly luciferase inhibitor/activator using purifed enzyme and Km concentrations of substrates (counterscreen for miR-21 project); also: nearly all actives have a fitted effect of over 55% in size;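 as to activity change, negative = inhibition: plate controls were vehicle for no effect and reference inhibitor for full effect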", "conditions": "purified FLuc, luminescence inhibition; activity change, negative = inhibition: at 57.5 µM (top of the series)", "in_short": "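Purified P. pyralis luciferase (10nM final) with 10uM D-luciferin and 10uM ATP (Km levels) in 50mM Tris acetate pH 7.5, 10mM Mg acetate, 0.01% Tween-20, 0.05% BSA; qHTS 6-point titration, ~60 µM downward; luminescence read.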"}
{"smiles": "CCCNC(=O)Cn1sc2nc(C)cc(C)c2c1=O", "Potency": "inconclusive: 7.57 µM [inhibitor, partial curve]"}
{"smiles": "Cc1cc(Cl)ccc1N=C1N=C(N)c2ccccc21", "Potency": "inconclusive: 37.9 µM [inhibitor, partial curve, poor fit]"}
{"smiles": "COc1ccc(NC(=O)COC(=O)c2ccncc2)c(OC)c1", "activity change, negative = inhibition": "inactive: -0.378%"}
{"smiles": "O=C(CSc1ncn[nH]1)Nc1nc(-c2ccccc2)ns1", "Potency": "inconclusive: 30.1 µM [inhibitor, single point]"}
{"smiles": "Cc1ccc(S(=O)(=O)N(C)c2ccc(OC(=O)CN3C(=O)NC4(CCCC4)C3=O)cc2)cc1C", "activity change, negative = inhibition": "inactive: 5.8%"}
{"smiles": "COc1ccc(-n2c(C)cc(/C=C3\\SC(=S)N(Cc4ccco4)C3=O)c2C)cc1", "Potency": "inconclusive: 12 µM [inhibitor, partial curve]"}
{"smiles": "O=C(CC1Nc2ccccc2NC1=O)Nc1ccccc1NC(=O)CC1Nc2ccccc2NC1=O", "note": "(stereo not drawn)", "Potency": "inconclusive: 37.9 µM [inhibitor, single point]"}
{"smiles": "CCn1ncc(Br)c1C(=O)Nc1c(C)nn(Cc2c(F)c(F)c(F)c(F)c2F)c1C", "activity change, negative = inhibition": "inactive: 1.5%"}
{"smiles": "COCc1nc2ccccc2n1Cc1ccccc1Br", "activity change, negative = inhibition": "inactive: 1.51%"}
{"smiles": "CCN(Cc1ccccc1)S(=O)(=O)c1c(C)[nH]c(C)c1C(=O)N1CCCCC1", "activity change, negative = inhibition": "inactive: 0.852%"}
{"smiles": "N#C/C(=C\\c1c[nH]c2ccccc12)C(N)=O", "Potency": "inconclusive: 21.3 µM [inhibitor, partial curve, poor fit]"}
{"smiles": "C/C(=N\\Nc1ccc2nncn2n1)c1cccs1", "Potency": "inconclusive: 23.9 µM [inhibitor, partial curve]"}
{"smiles": "CN(CC(=O)Nc1ccc(Cl)cc1)C(=O)CNC(=O)c1ccc2ccccc2c1", "Potency": "inconclusive: 7.57 µM [inhibitor, single point]"}
{"smiles": "N/C(=N\\OC(=O)COc1ccc2ccccc2c1)c1cccnc1", "Potency": "inconclusive: 23.9 µM [inhibitor, single point]"}
{"smiles": "O=C(O)c1ccc2c(c1)OCCOCCOCCOCCOCCO2", "activity change, negative = inhibition": "inactive: 0.306%"}
{"smiles": "COc1cccc(NC(=O)Nc2cc(C(=O)O)ccc2C)c1", "Potency": "inconclusive: 26.9 µM [inhibitor, partial curve, poor fit]"}
{"smiles": "O=C(COc1ccc(S(=O)(=O)NC2CCCCC2)cc1Cl)NCc1ccc2c(c1)OCO2", "Potency": "inconclusive: 30.1 µM [inhibitor, partial curve, poor fit]"}
{"smiles": "CC(C)c1ccc(S(=O)(=O)N2CCN(C(=O)CCNC(=O)Nc3ccccc3)CC2)cc1", "activity change, negative = inhibition": "inactive: 2.78%"}
{"smiles": "Cc1ccc2nc(N3C(=O)CNC3=S)sc2c1", "Potency": "active: 1.51 µM"}
{"smiles": "CC(C)OC(=O)c1c(NC(=O)C2c3ccccc3Oc3ccccc32)sc2c1CCCC2", "activity change, negative = inhibition": "inactive: -0.77%"}
{"smiles": "COc1cc(OC)c(NC(=O)CCc2c(C)nc3cc(-c4ccccc4OC)nn3c2C)cc1Cl", "Potency": "inconclusive: 10.7 µM [inhibitor, partial curve]"}
{"smiles": "COc1cccc(CNC(=O)c2cc3oc4ccccc4c3n2C)c1OC", "Potency": "inconclusive: 37.9 µM [inhibitor, partial curve, poor fit]"}
{"smiles": "O=C(CCC(=O)NNc1nc2ccccc2c2nc(-c3ccccc3)nn12)NCCCN1CCOCC1", "Potency": "inconclusive: 37.9 µM [inhibitor, partial curve, poor fit]"}
{"smiles": "Cc1cc(C)n(-c2cc(C(C)(C)C)nc3c(-c4ccc(Cl)cc4)cnn23)n1", "Potency": "inconclusive: 16.9 µM [inhibitor, partial curve]"}
{"smiles": "CCOc1ccc(C2NC(=O)c3c(COC)cc(C)nc3N2Cc2ccccc2)cc1OC", "note": "(stereo not drawn)", "activity change, negative = inhibition": "inactive: 0.583%"}
{"smiles": "O=c1c2[nH]c3ccc(F)cc3c2ncn1CC1CCCO1", "note": "(stereo not drawn)", "Potency": "inconclusive: 37.9 µM [inhibitor, single point]"}
{"smiles": "O=C(Nc1ccc2c(c1)OCO2)c1ccc2c(c1)OCO2", "Potency": "active: 2.13 µM"}
{"smiles": "CC(C)c1ccc(N2C(=O)C3C4C=CC(CC4)C3C2=O)cc1", "note": "(stereo not drawn)", "Potency": "inconclusive: 37.9 µM [inhibitor, partial curve, poor fit]"}
{"smiles": "O=C(Nc1ccc(SC(F)(F)F)cc1)c1ccccn1", "Potency": "active: 0.849 µM"}
{"smiles": "O=C(Nc1ncc(Cc2cccc(Cl)c2Cl)s1)C1CCCO1", "note": "(stereo not drawn)", "Potency": "active: 10.7 µM"}
{"smiles": "COc1ccc2nc3sc(C(=O)N4CCN(C)CC4)cc3cc2c1", "Potency": "inconclusive: 23.9 µM [inhibitor, partial curve]"}
{"smiles": "Cc1cc(Br)c2[nH]cc(CCNC(=O)c3ccco3)c2c1", "Potency": "inconclusive: 21.3 µM [inhibitor, partial curve, poor fit]"}
{"smiles": "CC(C)(C)N1C(=O)Cc2c1nc(N)c1c(N)nc(N3CCCCC3CO)c(C#N)c21", "note": "(stereo not drawn)", "Potency": "active: 8.49 µM"}
{"smiles": "CCOC(=O)c1cc(NC(=O)c2ccoc2C)cc(C(=O)OCC)c1", "Potency": "inconclusive: 37.9 µM [inhibitor, partial curve, poor fit]"}
{"smiles": "O=C(/C=C/c1cccs1)Nc1ccc(N2CCOCC2)c(S(=O)(=O)Nc2ccccc2Cl)c1", "Potency": "inconclusive: 37.9 µM [inhibitor, partial curve, poor fit]"}
{"smiles": "CC(=O)N1c2ccc(S(=O)(=O)N3CCCCC3)cc2CC1C(=O)NCc1ccccc1C", "note": "(stereo not drawn)", "activity change, negative = inhibition": "inactive: -2.09%"}
{"smiles": "O=C(Nc1ccc2c(c1)OCO2)c1cnccn1", "Potency": "inconclusive: 26.9 µM [inhibitor, partial curve]"}
{"smiles": "CCOC(=O)C1(C)/C(=N/Nc2ccc(S(N)(=O)=O)cc2)C(=O)C(=O)N1c1ccccc1", "note": "(stereo not drawn)", "Potency": "inconclusive: 26.9 µM [inhibitor, single point]"}
{"smiles": "CCOC(=O)c1cccc(Nc2cc(-c3ccccc3)ncn2)c1", "Potency": "inconclusive: 23.9 µM [inhibitor, partial curve]"}
{"smiles": "CCOc1ccc(OCC)c(NC(=O)C2CCN(c3nnc(-n4cccc4)s3)CC2)c1", "activity change, negative = inhibition": "inactive: 1.63%"}
{"smiles": "CC(=O)Nc1ccc(S(=O)(=O)NCCSCc2cccc(Cl)c2)cc1", "activity change, negative = inhibition": "inactive: -0.396%"}
{"smiles": "CC(C)(C)c1cc(OC(=O)C2CCCC2)ccc1O", "Potency": "inconclusive: 21.3 µM [inhibitor, partial curve, poor fit]"}
{"smiles": "Cc1ccc(C(=O)Nc2ccc(N3CCN(C)CC3)cc2)c(Cl)c1", "Potency": "active: 23.9 µM"}
{"smiles": "CCc1ccc(C(=O)NNC(=O)c2c(CC)noc2C)cc1", "Potency": "inconclusive: 26.9 µM [inhibitor, single point]"}
{"smiles": "Cc1ccc2nc(-c3sc4nc(C)ccc4c3N)[nH]c2c1", "Potency": "active: 1.2 µM"}
{"smiles": "Oc1ccc(NCc2ccccc2OCc2ccccc2F)cc1", "Potency": "inconclusive: 15.1 µM [inhibitor, partial curve, poor fit]"}
{"smiles": "CC(/C=N/NC(=O)c1cc(-c2ccc(C)s2)[nH]n1)=C\\c1ccccc1", "Potency": "inconclusive: 9.53 µM [inhibitor, partial curve, poor fit]"}
{"smiles": "CSCc1nc2sc(C(=O)Nc3nc(C)cs3)c(C)c2c(=O)[nH]1", "Potency": "inconclusive: 19 µM [inhibitor, partial curve]"}
{"smiles": "CC(C)C(=O)Nc1ccc(C(=O)NNC(=S)NC(=O)c2cccs2)cc1", "Potency": "inconclusive: 42.6 µM [inhibitor, partial curve, poor fit]"}
{"smiles": "CCN1CCN(c2ccc(S(=O)(=O)N3CCCCC3)cc2NC(=O)C(C)Oc2ccc(F)cc2)CC1", "note": "(stereo not drawn)", "activity change, negative = inhibition": "inactive: -0.864%"}
{"smiles": "CC1=CC(C)(C)N(C(=O)CSc2nnc(-c3ccc(C)cc3)o2)c2ccc(C)cc21", "activity change, negative = inhibition": "inactive: -1.96%"}
{"smiles": "Cc1cc(C(=O)CN2C(=O)CCC2=O)c(C)n1Cc1ccccc1", "Potency": "inconclusive: 37.9 µM [inhibitor, single point]"}
{"smiles": "Cc1ccc(C)c(NC(=O)N2CCN(C)c3ncccc32)c1", "activity change, negative = inhibition": "inactive: -0.584%"}
{"smiles": "CN(Cc1ccc2nonc2c1)Cc1nc(CC2CC2)no1", "activity change, negative = inhibition": "inactive: 0.419%"}
{"smiles": "Cc1ccc(OCC(=O)NNC(=O)c2ccoc2C)c(Br)c1", "Potency": "inconclusive: 21.3 µM [inhibitor, partial curve]"}
{"smiles": "Fc1ccc(CSc2ccc(-c3ccc4c(c3)OCO4)nn2)cc1", "Potency": "inconclusive: 6.75 µM [inhibitor, partial curve, poor fit]"}
{"smiles": "COc1ccc(-c2nc3ccc(NS(=O)(=O)c4ccccc4)cc3o2)cc1", "Potency": "inconclusive: 16.9 µM [inhibitor, partial curve]"}
{"smiles": "COc1cccc2cc(-c3ccccc3)c(=O)oc12", "Potency": "active: 8.49 µM"}
{"smiles": "O=C(NCCc1ccc(F)cc1)c1n[nH]c2ccccc12", "Potency": "active: 16.9 µM"}
{"smiles": "C/C=C/c1ccc(OCCOc2cc(C=O)ccc2OC)c(OC)c1", "Potency": "active: 13.5 µM"}
{"smiles": "CCOC(=O)C1(Cc2ccccc2)CCCN(C(=O)c2ccc(-n3ccnc3)cc2)C1", "note": "(stereo not drawn)", "Potency": "inconclusive: 19 µM [inhibitor, partial curve, poor fit]"}
{"smiles": "C/C(=N/OC(=O)C1CC12CCC2)c1ccc(Br)cc1", "note": "(stereo not drawn)", "Potency": "active: 6.75 µM"}
{"smiles": "COCCn1c(C)cc(C2=NNC(=NC3CC3)SC2)c1C", "Potency": "active: 0.239 µM"}
{"smiles": "Cc1ccc(/C=C2\\SC(=S)N(CCCC(=O)Nc3cccc(C(=O)O)c3)C2=O)cc1", "activity change, negative = inhibition": "inactive: 2.59%"}
{"smiles": "COc1cc2ccccc2cc1C(=O)Nc1ccc(O)cc1", "Potency": "active: 1.07 µM"}
{"smiles": "CO/N=C/CC(=O)c1cnc(-c2ccc(Cl)cc2)s1", "Potency": "inconclusive: 37.9 µM [inhibitor, partial curve, poor fit]"}
{"smiles": "O=C(Nc1nc(-c2ccc(-c3ccccc3)cc2)cs1)C1=COCCO1", "Potency": "inconclusive: 10.7 µM [inhibitor, partial curve, poor fit]"}
{"smiles": "Cc1ccc(C(C2=C(O)CC(C)(C)CC2=O)C2C(=O)CC(C)(C)CC2=O)s1", "note": "(stereo not drawn)", "Potency": "inconclusive: 26.9 µM [inhibitor, single point]"}
{"smiles": "CCOc1ccc(CNC(=O)c2cc3c(=O)n(Cc4cccs4)ccc3nc2C)cc1", "activity change, negative = inhibition": "inactive: -0.179%"}
{"smiles": "CC(C)NC(=O)C1CCN(C2CCN(C(=O)c3cc4c(s3)CCCCC4)CC2)CC1", "activity change, negative = inhibition": "inactive: -7.57%"}
{"smiles": "Cc1cccc(NC(=O)c2ccc3ccccc3n2)n1", "Potency": "active: 6.01 µM"}
{"smiles": "COC(=O)c1cc(S(=O)(=O)N2CCN(c3cccc(C)c3)C(C)C2)c[nH]1", "note": "(stereo not drawn)", "Potency": "inactive"}
{"smiles": "NS(=O)(=O)c1ccc(CCNc2ccccc2[N+](=O)[O-])cc1", "Potency": "inconclusive: 37.9 µM [inhibitor, partial curve, poor fit]"}
